{"source": "patent EP3138561A1", "about": "(priority 2014, dated 2015)", "tested_on": "Burkholderia cepacia", "conditions": "0.05%, 0.1%, and 0.2% solutions", "data": [{"smiles": "CC1CCC(C(C)C)C(OC(=O)C[N+](C)(C)CCCCCCCCCC[N+](C)(C)CC(=O)OC2CC(C)CCC2C(C)C)C1", "note": "(centres unmarked) [decamethoxine, 1,10-decamethylene-bis(N,N-dimethyl-menthoxycarbonylmethyl)ammonium dichloride]", "values": [{"measurement": "adverse side effects", "result": "no adverse side effects were observed"}, {"measurement": "tolerance", "setting": "most patients", "result": "good tolerance"}]}]}
